Measurements as given in PubChem BioAssay AID602332 (National Center for Advancing Translational Sciences (NCATS), 2012).
Where “and” joins values, the source holds several entries; their conditions need not be identical. Equal values may be shown once. The whole screen tested about 420,000 compounds, of which about 75 (0.02%) were called active. Calls come from the whole dose curve; as a rule, active = well fitted activation curve with a large enough effect; inconclusive = small, poorly fitted or top-dose-only effect; inactive = no such curve, though single readings can be large or run the other way. The entries are a selection whose mix differs from that of the whole data set.

Test: qHTS for Inducers of the Endoplasmic Reticulum Stress Response (ERSR) in Human Glioma: qHTS; note: nearly all actives have a fitted effect of over 35% in size; for activation: % of control where 0% means no effect
Details: U87-MG GRP78 promoter luciferase reporter, 16 h; activation: stronger effect = higher value
Procedure, shortened: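 Stably transfected U87-MG glioma cells carrying a GRP78-based luciferase sensor; 16 h compound incubation. Luminescence end-point read 10 min after Bright-Glo addition at room temperature.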
Potency is the fitted concentration of half-maximal effect.

activation, inactive:
COC(=O)c1nn(-c2ccc(-c3ccccc3)cc2)cc1O -15.1%, O=C1C(SCCO)=C(SCCO)C(=O)c2ccccc21 -11.7% [middle of 5 runs], C[C@]12CCC3c4ccc(O)cc4CCC3C1CCC2OC(=O)CCC1CCCC1 (some centres not stated) -5.94%, Cc1ccc(F)c(C2C3C=CCC(c4ccccc4)C3C(=O)N2Cc2ccccc2)c1 (configuration not stated) -10.8%, Clc1ccc(-n2nnnc2Sc2ncnc3sccc23)cc1 -16.5%, CCOC(=O)C1=C(O)C(=O)N(Cc2ccccc2)C1 1.65%, COc1ccc(/C=C/C(=O)c2c(O)ccc3c(C)cc(=O)oc23)cc1 -3.37%, Cc1ccc(/C=C/c2nc3ccccc3s2)s1 -17%, O=S1(=O)C=C(Sc2nc3ccccc3s2)c2ccccc21 -13.5%, O=C1c2cccc3cccc(c23)C(=O)N1CC1CCN(CC(O)COc2ccc3ccccc3c2)CC1 (configuration not stated) -18.8%, CCOC(=O)/C(=C/c1ccc(OC(F)F)cc1)C1=Nn2c(nnc2-c2ccc(Cl)cc2)SC1 -13.6%, C/C(=N\NC(=O)c1ccccc1O)c1cccs1 -15.2%, C[C@H](CO)N1C[C@H](C)[C@@H](CN(C)C(=O)Nc2ccc(C(F)(F)F)cc2)Oc2c(NC(=O)c3ccncc3)cccc2C1=O -1.3%, O=C1CCc2ccc(OCCCCN3CCN(c4cccc(Cl)c4Cl)CC3)cc2N1 -3.19%, O=C(Nc1ccc(NC(=O)c2ccco2)nc1)c1ccco1 -14.2%, O=C(Cn1ncc(Cl)c(Cl)c1=O)c1ccc(Cl)cc1 -15.2%, Cc1cc(C)nc(SCc2ccc(C(=O)NNC(=O)Nc3cccc(Cl)c3)cc2)n1 -14.9%, CC(C)=CCc1c2c(c3occ(-c4ccc(O)cc4)c(=O)c3c1O)C=CC(C)(C)O2 -9.13%, CC12CCC=CC1C(c1ccc3ccccc3c1Br)N(Cc1ccccc1)C2=O (configuration not stated) 6.05%, Cc1ccc(-c2cc(C(=O)N3CCOCC3)no2)cc1 -14.7%, Cc1ccc(C(=O)CCS(=O)(=O)c2ccc(F)cc2)cc1 -17.3%, CCCCNc1ccc(C(=O)OCCN(C)C)cc1 0.494% and -0.539% and -2.92%, N#C/C(=C\c1ccc(OCc2cccc(C(=O)O)c2)cc1)C(=O)NCc1ccco1 -14.6%, COc1cc(/C=N/Nc2ccc(Cl)c(C(=O)O)c2)ccc1OC(=O)c1ccco1 -14%, c1cncc(CNc2ncnc3ccc(-c4ccoc4)cc23)c1 -0.142%, Cc1ccc(-n2nc3c(N4CCC(C(=O)NCc5ccccc5C)CC4)nnc(C)c3c2C)cc1 -19.3%, Cn1c2ccccc2c2cc(C(=O)NNC(=O)CCl)sc21 -16.2%, CNC1CCC(c2ccc(Cl)c(Cl)c2)c2ccccc21 (configuration not stated) -9.95%, CC(C)(Sc1ccc(CCN(CCCCC2CCCCC2)C(=O)NC2CCCCC2)cc1)C(=O)O -2.55% and -4.29% and 0.798%, C=C(C)COc1ccc(-c2[nH]ncc2Oc2ccccc2OCC)c(O)c1 -18.1%, C/C(=C\c1ccc(C(=O)O)cc1)c1ccc2c(c1)C(C)(C)CCC2(C)C -4.99% [middle of 4 runs], COc1ccc(C(=O)Nc2ccc(C)cn2)c(OC)c1 -15.6%, COc1cc(NC(C)CCCN)c2ncccc2c1 (configuration not stated) -7.27% and -10.3%, CC(C)c1ccc(Cn2ccc3c4c(N)nc(NC5CC5)nc4ccc32)cc1 -11.7%, CN1c2ccccc2C(C)(C)C12C=Cc1cc(O)ccc1O2 (configuration not stated) -1.77%, CC[C@H](C)[C@H]1O[C@]2(CC[C@@H]1C)C[C@@H]1C[C@@H](C/C=C(\C)[C@H](O[C@@H]3C[C@H](OC)[C@H](O[C@@H]4C[C@H](OC)[C@@H](O)[C@H](C)O4)[C@H](C)O3)[C@@H](C)/C=C/C=C3\CO[C@@H]4[C@H](O)C(C)=C[C@@H](C(=O)O1)[C@]34O)O2 -10.1%, CC(C)(C)c1ccc(C(O)CCCN2CCC(C(O)(c3ccccc3)c3ccccc3)CC2)cc1 (configuration not stated) -4.96% [middle of 4 runs], O=C(CCl)N(CCc1ccccc1)CCc1ccccc1 -18.9%, O=[N+]([O-])c1cc(S(=O)(=O)NCCN2CCOCC2)ccc1Sc1nnnn1-c1ccccc1 -14.5%, CC(C)c1ccc2c(c1)c(SC(C)(C)C)c(CC(C)(C)C(=O)O)n2Cc1ccc(Cl)cc1 6.07% and 15.3%, CCOc1ccccc1CNC(=O)C1CCN(c2nnc(C)c3c(C)n(-c4ccc(C)cc4)nc23)CC1 -5.22%, COc1cccc2sc(N(CCCN(C)C)C(=O)CCS(=O)(=O)c3ccccc3)nc12 -15.4%, O=C1C2C(c3ccccc3)CC=CC2[C@H](c2ccc3ccccc3c2)N1Cc1ccccc1 (some centres not stated) -2.86%, Cc1cnc(NC(=O)c2ccc(OCC3CCCO3)cc2)s1 (configuration not stated) -15.4%, CN[C@@H]1CC[C@H](c2ccc(Cl)c(Cl)c2)c2ccccc21 -5.03%, O=C(Nc1ccc(NC(=O)c2cccs2)cn1)c1ccco1 -13.5%, c1cc2c(cc1C1CCCCC1)c1c3n2CCCNC3CCC1 (configuration not stated) -18.8%, Cc1cc(C)nc(Sc2ncnc(N)c2[N+](=O)[O-])n1 -16.1%

Potency, active:
COc1cc(/C=C/C(=O)c2ccc3c(c2)OCO3)cc(OC)c1OC 28.2 µM, O=C(C[C@H]1C/C=C\C[C@H](NC(=O)OCC2c3ccccc3-c3ccccc32)C(=O)O[C@H](c2ccccc2)CNC1=O)N[C@H](CO)Cc1ccccc1 28.2 µM, CCOC(=O)COc1cc(Br)c(/C=N/Nc2ccccc2)cc1OC 35.5 µM, Cc1cc(=O)oc2c(O)c(O)ccc12 28.2 µM
